# Measurements: PubChem BioAssay (NCI)
#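 Values below derive from 48-hour exposures of cells grown in 96-well plates, with endpoints linearly interpolated between the two concentrations bracketing the appropriate inhibition level. Here, GI50 denotes the concentration required for 50% inhibition of growth. TGI is the concentration that stops growth completely.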
# Tested on: NCI-H322M lung
# Assay: inhibition of tumour cell growth, NCI panel, 48 h
SMILES,GI50,TGI
N#Cc1c(NC(=O)c2ccc(C(O)(C(F)(F)F)C(F)(F)F)cc2)sc2c1CCC(=O)C2,5.59 µM,30.3 µM
Cc1sc(C(NC(=O)OCCn2c([N+](=O)[O-])cnc2C)C(F)(F)Cl)nc1-c1ccc(OC(F)(F)F)cc1 (centres undefined),6.27 µM,19.6 µM
